Reference: PubChem BioAssay (NCI)
Some structures have more than one record in an assay (separate samples or runs), and their calls can disagree.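 Negative percent growth values reflect cell death: -40 means 40% of the cells present at the start died, and -100 means all died.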 Certain results were filed several times, with different values. Only these are listed. Rule for the calls: active = growth percent below 10; inactive = the rest. An entry can have further records. This drug was run again and again over the years, at its own concentration, as given; each value is one run. Signs of the kind (2×) give the number of equal values in this list.

Test system: PC-3 prostate
Assay: NCI-60 one-dose screen, 48 h (100 = growth as untreated, 0 = no growth, -100 = all killed)

## COc1cccc2c1C(=O)c1c(O)c3c(c(O)c1C2=O)C[C@@](O)(C(=O)CO)C[C@@H]3OC1CC(N)C(O)C(C)O1 (stereo not given in full)
0.25 µM, runs of 2016
  growth: inactive: 70.1, 65.9 (2×), 69.9, 71.2 (2×), 64.9, 60 (2×), 64.2 (2×), 61.7 (2×), 68.4, 66.6 (2×), 55.6, 64.5 (3×), 62.5, 50.1, 55.1, 59.8, 63.6, 56.3, 65.3 (2×), 58.5, 61.9, 61, 63.4, 61.5 (2×), 62.6, 62.1, 62, 61.8 (2×), 58.2, 67.8, 63.7, 69.5 (2×), 71.9, 72.2, 78.7, 65.1 (2×), 66.3 (2×), 52.9, 56.7, 65.2, 60.6, 64.4, 63.2, 69.2, 65.5, 67.9, 69.1, 65, 69.8 (2×), 67.7, 79.6, 79.4, 75.4, 59.2, 69.7, 70.7, 70.5 (2×), 71.5, 70.2, 70.9, 73.3, 73.2% (2×)
0.25 µM, runs of 2017
  growth: inactive: 77.6, 74, 72.2, 70.1, 74.6, 70, 62.1 (3×), 63.6, 55.6, 58 (2×), 64.8 (2×), 60.6 (2×), 63.8, 59.8 (2×), 65.1 (2×), 62.5 (2×), 63.5, 58.4, 63.2 (2×), 60.8, 61.8, 64.4, 62.4 (2×), 68.2, 63.4, 62.6, 63.7, 65.3, 64, 61.9 (2×), 59.7 (2×), 62.3 (3×), 65.5, 65.4, 68.6, 72.1, 59.5, 59, 52.7, 58.2, 56, 62, 51, 57.6, 63.3, 57, 57.9, 61.7, 60, 70.4, 66.3, 69.4, 58.9, 55.8, 77.2, 75.7, 57.7, 60.7, 55%
0.25 µM, runs of 2018
  growth: inactive: 64.7 (2×), 63.7 (2×), 58.5, 64.6, 58.1, 58.2, 60.1, 59.7, 63.3, 56.9, 64.4, 65.1 (2×), 66.6, 62.1 (4×), 61.2, 62, 66.4, 64, 58.9, 61.6, 62.3, 60 (2×), 58.4, 61.5 (2×), 60.3, 59.6, 53.6, 55.4, 68.2, 71.5, 59.5, 64.5, 63.8, 65.9, 62.6, 56.7, 40.5, 49.7%
0.25 µM, runs of 2019
  growth: inactive: 51.3, 46.8, 51.1 (2×), 43.5, 49.5, 52.9, 49.9, 56.6, 58.2, 52.8 (2×), 54.7, 51.8 (2×), 56.5, 55.3 (2×), 58.4 (2×), 52.4, 58, 57.8, 59.4, 61.3, 61.2 (2×), 55.4, 66.3, 63.1, 60.9, 60.8, 56.8, 54.6 (2×), 54.8, 55.2, 53.8, 55.7, 53.2, 56.2, 57, 57.4 (2×), 52.2 (2×), 59.6, 57.3, 58.1, 50.8%
0.25 µM, runs of 2020
  growth: inactive: 53.3, 50.1, 59, 60.3 (2×), 57.3, 62.5, 63.5, 59.4, 59.3 (2×), 57.7 (2×), 50.6, 59.8, 49.3, 57.9, 72.9, 62.1, 54.7, 65.7, 58.4, 64.4%
0.25 µM, runs of 2021
  growth: inactive: 64.7, 60.2, 67.2, 63.4 (2×), 59.8, 65.5, 54.4, 55.9, 58.1 (2×), 55.6, 61.5 (2×), 61.8, 63.8, 67.7, 63.6, 60, 58.5, 58, 55.7, 58.8, 54.7, 55.5, 56.2, 49.9, 56.7, 57.3, 70.8, 68.4, 69.4, 66.2, 71.9, 56.3, 59.7, 63.5, 59.4, 58.7, 64.9, 67.6, 50.4, 57.9, 49.7, 50.1, 38.4, 52.4, 54, 73, 68.6%
0.25 µM, runs of 2022
  growth: inactive: 17.4, 19.7, 60.8, 70.9, 19.5, 57.9 (2×), 39.4, 54.8, 52, 53.5, 59, 64.2, 53.6, 61.7, 56.9, 56, 47.9, 71.9, 79.6 (2×), 56.1, 71.3, 56.3, 56.2 (2×), 54.6, 57%
25 µM, runs of 1993
  growth: active: -52.8 (2×), -46.9, -64.1, -38.3, -73, -56, -63.7, -69.9, -58.2, -60.4, -74.3, -55.6, -82, -61.7, -67.3, -57, -52.2, -78.2, -40.9, -49.7, -60.8, -50.5, -52, -60.6, -40.3, -48.1, -41.3, 2.8, -59.1, -45.8, -55.8 (2×), -11.7, -49.8, -62.4, -53.1, -4.59, -75.5, -9.6, -60.7, -34.6, -54.3, -59.9, -81, -90%
25 µM, runs of 1994
  growth: active: -27, -81.3, -42.7, -69.1, -69.9, -10.1, -65.7, -53.2, -72, -56.2, -56 (2×), -33.4, -49.8, -56.9, -39.2, -52.1, -40.6, -27.3, 0.583, -48.8, -24, -54.9, -49.3, -21.9, -18.2, -35.6, -15.2, -55, -18.5, -47.8, -46.7% and inactive: 99.1%, 24.9%
25 µM, runs of 1995
  growth: active: -30.6, -21.1, -49.1, -40.3, -82.5, -72.8, -57, -44.6, -28.1, -57.1, -55.5, -48.2 (2×), -44, -19.5, -50.8, -56.7, -74, -34, -54.4, -41.6, -78.5, -32.3, -31.9, -49.3, -25.8, -20, -65.7, -18, -60, -49, -63.5, -52.4, -52.5, -53 (2×), -61.8, -43.7, -81.9, -56, -47.7%
25 µM, runs of 1996
  growth: active: -28.7, -46, -49.8, -21.5, -28.9, -37.2, -33.2, -52.3 (2×), -43, -64.8, -62.6, -7.4, 8.08, -51.4, -67.7, -26.8, -55.8, -61.7, -52.6, -28.6, -6.87, -44.8 (2×), -56.2, -52.8, -60.9, -41.9, -2.42, -20, -35.5, -60.2, -38.7, -17.8, -49.7, -64.1, -65, -54.4, -59.9, -78.6, -70.9, -57.4 (2×), -59.3 (2×), -62.9, -82.7, -66.2, -60.8, -77.1, -50, -13.1, -78.1, -63.3, 3.8, -48.9% and inactive: 90.8%, 14%
25 µM, runs of 1997
  growth: active: -37.6, 0.552, -33.5, -26.6, -34.2, -41.9, -11.3, -39.4, -56.8, -31.5, -54.1, -28.8, -36.4, -44.2, -37.2, -61.7, -34.7, -25.3, -68.9, -44.9, -59.7, -45.7, -66.5, -51.9, -27.1, -26.2, -36.3, -32.9, 3.15, 4.12, -3.83, -35.2, -11.9, -6.83, -26.3, -22.7, -17.2, 2.24, -11.4, -9.7, 0.195, -3.1, 2.18, 4.6% and inactive: 33.4%
25 µM, runs of 1998
  growth: active: -40.2, -48.6, 4.74, -24.8, -16.9, -39.1, -26.9, -73.7, -35, -23.5, -24, -28.4, -2.8, -39.6, 8, -49, -42.1, -24.2, -26.2, -45, -4.04, -17.8, -35.8, -0.472% and inactive: 10.5%, 14.1%
25 µM, runs of 1999
  growth: active: 3.79, -8.61, -18.2, -49.1, -38.3, -100, -73.7, -69.8, 0.428, -16, -43.8, 1.3, -72, -81.7, -75.8, 0.678, -89.6%
25 µM, runs of 2000
  growth: active: -100% (2×), -40.5%, -78.9%
